Some of the results follow.
Tested on: PfAP2-HC AP2 domain (GST-tagged)
Assay: gcPBM binding intensity (ln(normalized median fluorescence intensity)); higher = stronger DNA binding
In short: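 DNA-binding domains from P. falciparum, fused to GST and produced in E. coli, were put on an Agilent 4 × 180k double-stranded probe array for 1 h in 1× PBS holding 1% milk, 0.2 mg/ml BSA, 0.5% salmon testes DNA and 0.03% Triton X-100. Probes were primer-extended, 36 bp long and drawn from intergenic genomic regions, with negative controls included. After Alexa488 anti-GST antibody detection and a 488 nm scan, binding intensity was set as the highest Masliner-normalised natural-log median intensity across replicate spots of either probe orientation.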

| Sequence | gcPBM binding intensity (ln) |
| --- | --- |
| TAGTTTCAAGTAGGACGTACATATAAAAGGATTTTT [XGTACX_site7136] | 9.6 |
| TATATATATATAATTGTGCACATAATTTTAAACCAA | 9.64 |
| AATTAAAAAAGTAATTAACACACAATAATGTAATGC [CACACA_site9388] | 10 |
| GTTCTGTAAATACGTGCACACACAAATCACAAATGT [CACACA_site7999] | 10.1 |
| AAAGAAATGAAATATACACACATACATATATACATA [CACACA_site9335] | 10.4 |
| GATATATTTTATATATGTACATACAATGGTAAATAT [XGTACX_site2759] | 9.66 |
| TTTTTTTTCTTTTTTTGTACATAATAATATATAAAT [XGTACX_site6778] | 9.59 |
| AAAAAAAAAAAAAAAACATGCAATAAAGTGTGCGTA [TGCATGCA_site982] | 9.61 |
| TTTTGGTGGGTTACAAGTACTCAAAATGGATTGTTA [XGTACX_site1951] | 9.61 |
| TTAAATATATGTAATACGCACACTTAATATTTTGAG [CACACA_site4170] | 9.63 |
| TTTCGAAAAACAACAAGAAAAAAAAAAAAAAAAAAA [XGTACX_negctrl_site449] | 8.74 |
| TCACATACATTACTTACACACCATATTGATATATAC [CACACA_site6353] | 10 |
| TATCTCATAGTATACACACACACACGCGCACATATA [CACACA_site6917] | 10.5 |
| TGTATATATTATATTTGTACATATAAAACTATATGT [XGTACX_site4782] | 9.62 |
| TTATTTTTTAAAAGTAGTACAAATTTTTATAGAAAA [XGTACX_site7407] | 9.21 |
| ATTCCTTGGTTGTATAGTACTTTGGTTAAACATAAA [XGTACX_site6967] | 9.55 |
| CAATATTTGTTATGGGTGCAAACCGCATATATATAA [GTGCAC_site9543] | 9.57 |
| ATTAAATCCGCACGCACACACACATATTAATAAAAA [CACACA_site3992] | 11.1 |
| TAAAAAAGAAAATATATACACACCAAAAAAAAAAAA [CACACA_site3146] | 9.79 |
| AAACAAAAAAATTGAAATAAAATGAAGTAAATGAAC [TGCATGCA_negctrl_site129] | 9.78 |
| ACATGTCTTAAAAGACGTACATATAAAAGAACCCTA [XGTACX_site8940] | 9.76 |
| AATATTAAAGAATAATGTACAAAATAAAAGCAAAGA [XGTACX_site3550] | 10.6 |
| TATTAATTTCACCTTTCACATATGGAAAAAAAAAAA [CACACA_negctrl_site1243] | 9.27 |

| Sequence | gcPBM binding intensity (ln) |
| --- | --- |
| AATGTGCACACGCGTACACACAAAAAAAGAAAAAAA [CACACA_site7031] | 10.1 |
| TATTATTTGAGTAGTTGTACTCATTAATATATAAAA [XGTACX_site3468] | 9.35 |
| ATTAACATTTTCGTATGTACATATATAATATATGTT [XGTACX_site7184] | 9.93 |
| ATGTTTATTTATTTATGTACTTATATATTTATATAT [XGTACX_site7924] | 9.93 |
| AATAAAAATAAAAATTGTACACTTTTTTAATATTTA [XGTACX_site892] | 9.5 |
| TTTCCAAATACAACTACACACAAACAAAAATTATAT [CACACA_site4641] | 10.2 |
| CAAAATATTTATATCACACATATAAATAAAAATAAA [CACACA_site6028] | 9.74 |
| TTTTGATATATGAATATTAAGTTATATAATATTTTA [TGCATGCA_negctrl_site39] | 9.46 |
| AATTTAATTGTGAGAGTGCGTACTGCTCCACATATA | 9.54 |
| TATATATATAAATACACACACACAAAAAAAAAAAAA [CACACA_site4930] | 10.5 |
| ATGTGTTTGTATATATGTACATATTTATGTTATTTC [XGTACX_site6960] | 10.3 |
| AAAAAAAAAAAAAAAAAAAAAAAAAAATGAGATACA [GTGCAC_negctrl_site160] | 9.25 |
| TATAACAAATAAAAATGTACATATATATAATATATA [XGTACX_site6173] | 9.81 |
| ATCTTATCATTTTAAAGTACATAATTAATTCTTTTT [XGTACX_site3999] | 9.66 |
| ATAATACCAGAATAGATTTAAATGAATATTTTATTT [CACACA_negctrl_site476] | 9.59 |
| ATGATATATTTAATAGTGCACTAATTAAAATTATTA [GTGCAC_site9418] | 9.46 |
| AAAAGGATATATGAAAGTACAAAGGTATAGTATATT [XGTACX_site7385] | 9.85 |
| TACAGTAAAAATAGTTGTACTTGTTTATTTCTTCTT [XGTACX_site7674] | 9.51 |
| TAAAATATAATGATCACACATATAAACAAGTGGGTA [CACACA_site4651] | 9.8 |
| TATTCTAGAATTTTAACACACAAGAATATAAACTTT [CACACA_site6757] | 9.56 |
| ATTTTTAAATACAGTACACACATGGGTTTAAATTAT [CACACA_site2884] | 9.7 |
| GGTTATATGATAGGATGTACAATTAAAAGTAAATAT [XGTACX_site5083] | 9.66 |
| TCCTATAAACAAATTTGTACATATAAGAATATATTC [XGTACX_site3892] | 9.55 |

| Sequence | gcPBM binding intensity (ln) |
| --- | --- |
| TTATTATTCTTAAGGATATAACAAAAAAGAAAAATT [CACACA_negctrl_site1402] | 9.41 |
| TATTTATATTTATATACACACATATATACCTATATA [CACACA_site7820] | 9.95 |
| GATTATTTTAGAAGTACACACATTTATATATAATAA [CACACA_site5429] | 9.62 |
| TATAAACGCACCTACACACACAACGTAAATGCATTG [CACACA_site7120] | 10.1 |
| TGAACATTATAGAAAAGTACTTAGTTTTTAAAAAGA [XGTACX_site6864] | 9.62 |
| TATTCAAAACGGTATTGTACAAATTTTATAATTTAA [XGTACX_site6928] | 9.45 |
| GCCGCACCCAGATACGCACACAAGAAAAAAATATTC [CACACA_site3456] | 9.8 |
| TATGGATAAATAAATACACACATAAATTTAAATATA [CACACA_site1282] | 9.86 |
| AAATTATAAAAATGTAGTACAGACAATATATTCGTA [XGTACX_site8307] | 9.82 |
| ATAAATATTATTTTACGTACATATTTATGAAGTATT [XGTACX_site8746] | 9.58 |
| CAGGAGAGAAAATATCGTACAAGCAAAAATAAGTGG [XGTACX_site8557] | 9.82 |
| GTTTATATGTTCATAGTGCATATATGTTGATTTATT | 9.89 |
| TTTTTTTTTTTTTACTGTACTTAATAAGATTGAATA [XGTACX_site2384] | 9.12 |
| TATAAAAAAAAAAAAAAAAAAAAAAAAAAAAAAAAA [TGCATGCA_negctrl_site42] | 8.96 |
| TATTATTTTAAGATTGTTTATGTAAAGAATTATGAA [CACACA_negctrl_site445] | 9.16 |
| TGTGTATATATGCTGGTGCAACTTTAAAAAATAATC | 9.59 |
| AAATTATATACCACAGTGCAAAAGGCAGGTATACGT | 9.91 |
| GTAGAGAAAAAAATGTGGACACAAAAAATAAAAAGG [XGTACX_site4058] | 9.79 |
| TTTTTTTTTTTTTGCACACACATATATAAATATATA [CACACA_site3949] | 9.91 |
| TATATTGCAAAAAGTACACACATAAATAAATACATA [CACACA_site6589] | 9.92 |
| AGTAGTCTGGAGAAGAGTACATAGTATCTGGTAGCT [XGTACX_site2017] | 9.72 |
| CTACACACTTATAAATGTACAGGATTTAAGTATATG [XGTACX_site8245] | 9.62 |
| TATTTATTTATTTTGTTATAATTAAAATGGATACAT [XGTACX_negctrl_site387] | 9.48 |

| Sequence | gcPBM binding intensity (ln) |
| --- | --- |
| TAACTTAATAAAAAAAGTACATATATTTTTAATAAA [XGTACX_site2707] | 9.21 |
| AGTGAATATTACGAAACACACAAAAAAATACATTTC [CACACA_site511] | 10.1 |
| AAATATAATAATACATTGCACATATATTATATATAT [TGCATGCA_negctrl_site611] | 9.69 |
| TGTAATAATCTTCATTTCTTTTTTTTTTTTTTTTGT [CACACA_negctrl_site1388] | 9.32 |
| TTTGATAAATGATACACACACAATATTTATAAAATA [CACACA_site7040] | 10.1 |
| ACATTATATAAATATATACATATATATATATATAAA [GTGCAC_negctrl_site115] | 9.5 |
| CCCACGTATATTTTGTGTACATAAATAAATAAATAA [XGTACX_site4046] | 9.46 |
| TCTATTATCCTTTGCACACAAAATAAATGAAAAAAT [CACACA_site3029] | 9.66 |
| ATATAAGTTTTTTCTCAAAAAGTATAACGAGCATGA [CACACA_negctrl_site1375] | 9.65 |
| AAACAACAAAAATGATATATATAAAATTTATAATAT [XGTACX_negctrl_site185] | 9.7 |
| TATTTAATTATATAAAATTAAATTTTTAATTCTTCC [CACACA_negctrl_site473] | 9.16 |
| ATGCATAAAAGAAATACACACATAAATATATAAATA [CACACA_site2163] | 9.99 |
| TATGGATTACACAATTGTACAAGAAAAATGTAAATA [XGTACX_site4040] | 9.76 |
| TGTCATGATACATACACACACATACACATACACATA [CACACA_site2135] | 10.2 |
| TTTTTTTCATAATATACACACAAAAAAAAAAAAAAA [CACACA_site3224] | 9.26 |
| ATATATATATATATGTGTACATATATATATCATATG [XGTACX_site3126] | 9.68 |
| TATACTCATATATAAACACACAAAAAAAAAAAAAAA [CACACA_site5165] | 9.66 |
| ATACGAAAATATTTTGCACACTATAATTATTCATAT [CACACA_site1765] | 10.1 |
| TTTCCCTACCAAAAGTGTACTTATACATATTTTTAT [XGTACX_site5495] | 9.78 |
| AAAAAAAAAAAAAAAGTGCATTAATAAATTTTAATA | 9.33 |
